In PubChem BioAssay (NCATS):
The shares of active, inactive and inconclusive entries below differ from those in the screen. A potency beside an inconclusive call is a rough fit, not a confirmed value. Activity calls are given as the source filed them. The call rests on the fitted dose curve; in most records, active means well fitted inhibition curve with a large enough effect; inconclusive means small, poorly fitted or top-dose-only effect; inactive means flat fitted curve, though single readings scatter.

Experiment: BET inhibitor-based combinations targeting novel dependencies in MECOM-rearranged (r) AML: AML-194 cell line (AID 2202237; further: nearly all actives have a fitted effect of over 40% in size;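 on viability (% of control): plate controls were vehicle wells for no effect and wells without cells for full effect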)
Conditions: AML-194 (MECOM-r AML) viability, CellTiter-Glo, 48 h; series mostly up to 46 µM; viability (% of control): at the top concentration
Method in brief: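 Viability of cells (500 per well) is scored by luminescent CellTiter-Glo at 48 hr post-dosing. Eleven-point titrations are normalized to DMSO and empty controls and reduced to AUC values.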
Potency means the concentration at half of the fitted maximal effect; tags describe the fitted curve by direction and shape.

Compound | Potency | viability (% of control)
CCN1CCC(n2cc(CNc3cc(Cl)c4ncc(C#N)c(Nc5ccc(F)c(Cl)c5)c4c3)nn2)CC1 | inconclusive: 33.2 µM [inhibitor, single point] | –
O=C(NC[C@H](O)CO)c1ccncc1Nc1ccc(I)cc1F | inconclusive: 1.86 µM [inhibitor, partial curve] | –
CC(C)NC[C@@H](C(=O)N1CCN(c2ncnc3c2[C@H](C)C[C@H]3O)CC1)c1ccc(Cl)cc1 | inconclusive: 14.8 µM [inhibitor, partial curve, poor fit] | –
Cc1ccc(C(=O)N(CCCN)[C@@H](c2oc3cc(Cl)ccc3c(=O)c2Cc2ccccc2)C(C)C)cc1 | inconclusive: 0.0468 µM [inhibitor, full curve, poor fit] | –
CC(C)Oc1cc(Nc2nc(N[C@@H](C)c3ccc(F)cn3)ncc2Cl)[nH]n1 | inconclusive: 0.0209 µM [inhibitor, full curve, poor fit] | –
CCCCCN(CCC12CC3CC(CC(C3)C1)C2)C(=O)NCCCc1ccncc1 | active: 18.6 µM | –
O=C(NCC1CN(c2ccc(N3CCOCC3=O)cc2)C(=O)O1)c1ccc(Cl)s1 (configuration not stated) | – | inactive: 98.1%
CCn1cc(-c2ccnc3[nH]c(-c4cccc(CN(C)C)c4)cc23)c(-c2ccc(NC(=O)N(C)C)cc2)n1 | active: 5.9 µM | –
CN(C)CCC=C1c2ccccc2C=Cc2ccccc21 | inconclusive: 26.3 µM [inhibitor, single point] | –
Cc1cc(C(=O)Nc2cc(Nc3ccc4c(/C=C/c5ccccn5)n[nH]c4c3)ccc2F)n(C)n1 | inconclusive: 20.9 µM [inhibitor, partial curve] | –
CC(C)C[C@H](NC(=O)c1cc2ccccc2s1)C(=O)N1CCN(C(=O)[C@H](CO)NS(=O)(=O)c2ccc(Cl)cc2Cl)CC1 | inconclusive: 33.2 µM [inhibitor, single point] | –
CN1CC[C@@H](c2c(O)cc(O)c3c(=O)cc(-c4ccccc4Cl)oc23)[C@@H](O)C1 | active: 0.417 µM | –
